Results on 30 compounds are retold here after PubChem BioAssay AID1745853 (National Center for Advancing Translational Sciences (NCATS), 2022).

What all share (test): Primary Screen for Target Class Profiling of Small Molecule Inhibitors of Methyltransferases
Experiment [1] concerns the target Glycine N-methyltransferase (Homo sapiens) (UniProt Q14749). Particulars: purified enzyme, MTase-Glo SAH luminescence; measured here: GNMT inhibition; at 40 µM; stronger effect = lower value. An outline of the steps: (§1)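 Each enzyme was reacted with SAM and its substrate, with compounds tested once at 40 uM; SAH formed was read by MTase-Glo luminescence.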
For experiment [2], the target named is Guanidinoacetate N-methyltransferase (Homo sapiens) (UniProt Q14353). Particulars: purified enzyme, MTase-Glo SAH luminescence; measured here: GAMT inhibition; at 40 µM; stronger effect = lower value. In outline:
as §1

Experiment [3] addresses Histamine N-methyltransferase (Homo sapiens) (UniProt P50135). Particulars: purified enzyme, MTase-Glo SAH luminescence; measured here: HNMT inhibition; at 40 µM; stronger effect = lower value. In outline:
as §1

In experiment [4] the target is Nicotinamide N-methyltransferase (Homo sapiens) (UniProt P40261). Particulars: purified enzyme, MTase-Glo SAH luminescence; measured here: NNMT inhibition; at 40 µM; stronger effect = lower value. In outline:
as §1

The target in experiment [5] is Phenylethanolamine N-methyltransferase (Homo sapiens) (UniProt P11086). Particulars: purified enzyme, MTase-Glo SAH luminescence; measured here: PNMT inhibition; at 40 µM; stronger effect = lower value. An outline of the steps: as §1

The structures appear in SMILES notation. The list shows a part of the results. Further columns of the screen follow, without active or inactive calls.
On the % scale 0 is the no-effect control and ±100 the full control effect.

In the case of `CC1(C(=O)NC2CCCCCCC2)Cc2ccccc2C(=O)N1C1CCCC1` (stereo not drawn), the activity change, negative = inhibition was -0.913% in experiment [1]; 1.27% in experiment [2]; 11.3% in experiment [3]; 9.11% in experiment [4]; -0.509% in experiment [5].

`CCCN1C(=O)c2c(C(=O)NCc3ccc(F)cc3)ncn2CC1(C)C(=O)NCc1ccc(OC)cc1` (stereo not drawn): the activity change, negative = inhibition is -2.46% in experiment [1]; 1.99% in experiment [2]; 1.23% in experiment [3]; 0.113% in experiment [4]; 4.94% in experiment [5].

For the compound `Cc1ccccc1C(=O)Nc1ccc2c(c1)C(=O)N(C)C1=NCCN12`, the activity change, negative = inhibition in experiment [1] was -6.52%; in experiment [2], -2.19%; in experiment [3], 4.37%; in experiment [4], -7.06%; in experiment [5] it was -9.17%.

Regarding `C=C1C(=O)OC2/C=C(\CO)CC/C=C(\C=O)CC(OC(=O)CC(C)C)C12` (stereo not drawn), the activity change, negative = inhibition in experiment [1] is -0.156%; in experiment [2] it was -0.517%; in experiment [3], 9.08%; in experiment [4], -11.5%; in experiment [5] it was 7.81%.

As to `Nc1n[nH]c(N)c1N=Nc1ccc(O)cc1`, the activity change, negative = inhibition in experiment [2] is -21.8%; in experiment [4], -2.54%; in experiment [5], 1.5%.

For `CCCC1c2cccn2CCN1C(=O)Nc1ccccc1Cl` (stereo not drawn), the activity change, negative = inhibition was 1.94% in experiment [1]; 1.96% in experiment [2]; -45% in experiment [3]; 7.8% in experiment [4]; 9.12% in experiment [5].

For the compound `COc1cc(CCc2ccc(OCC=C(C)C)cc2)cc(OC)c1OC`, the activity change, negative = inhibition in experiment [1] is 3.76%; in experiment [2], 7.98%; in experiment [3] it was 9.4%; in experiment [4] it was -11.4%; in experiment [5] it was 2.07%.

In the case of `Cc1ccc2nc(NC(=O)Cn3nc4c(cc3=O)CCCCC4)sc2c1`, the activity change, negative = inhibition in experiment [1] was -30.9%; in experiment [2], -8.94%; in experiment [3], -13.9%; in experiment [4] it was -14.9%; in experiment [5], -4.62%.

As for `COc1ccc(-c2cc3n(n2)CC(C)(C(=O)NCc2ccccc2)N(Cc2cccc(OC)c2OC)C3=O)cc1` (stereo not drawn), the activity change, negative = inhibition in experiment [1] is 9.03%; in experiment [2] it was 7.48%; in experiment [3] it was 10.9%; in experiment [4] it was 6.86%; in experiment [5], 2.87%.

For `NC(=O)[C@@H](Cc1c[nH]c2ccccc12)NC(=O)C1=C[C@@H](NS(=O)(=O)c2cccs2)[C@@H](O)[C@H](O)C1`, the activity change, negative = inhibition in experiment [1] is -7.45%; in experiment [2], -5.57%; in experiment [3], -0.487%; in experiment [4], -5.51%; in experiment [5], -8.68%.

For the compound `C=CC(=O)Nc1cccc(Oc2nc(Nc3ccc(N4CCN(C)CC4)cc3)ncc2Cl)c1`, the activity change, negative = inhibition in experiment [1] was -40.7%; in experiment [2], 2.44%; in experiment [3], -27%; in experiment [4] it was -55.3%; in experiment [5], -7.92%.

As for `Cc1nc(CN2CCCC(c3[nH]ncc3Cc3ccccc3)C2)co1` (stereo not drawn), the activity change, negative = inhibition in experiment [1] was -1.87%; in experiment [2] it was -0.774%; in experiment [3], -6.49%; in experiment [4] it was -5.96%; in experiment [5] it was -3.71%.

As to `Cc1noc([C@H]2CCN(C(=O)NCc3ccccc3)C[C@H]2NC(=O)C2CCOCC2)n1`, the activity change, negative = inhibition in experiment [1] is -2.19%; in experiment [2], -5.57%; in experiment [3], -0.659%; in experiment [4], -3.53%; in experiment [5] it was -1.22%.

On to `COc1cccc(-c2nc3cc(SC)ccc3cc2CN(C)Cc2ccno2)c1`, for which the activity change, negative = inhibition is -14.2% in experiment [1]; -9.41% in experiment [2]; -6.85% in experiment [3]; -25.2% in experiment [4]; -13.7% in experiment [5].

Take `CC(C)(C)c1cc(CC2(NCc3ccc(Cl)cc3)COC2)no1`: the activity change, negative = inhibition in experiment [1] is -5.83%; in experiment [2], -10.9%; in experiment [3], -4.67%; in experiment [4], -16.4%; in experiment [5], -7.25%.

For `Cc1ccc(CN2CCCCC23Cc2ccccc2CNC3=O)cc1C` (stereo not drawn), the activity change, negative = inhibition in experiment [1] is -9.86%; in experiment [2], -6.77%; in experiment [3], -10%; in experiment [4] it was -17.9%; in experiment [5] it was -10.7%.

Consider `Cc1ccc(Cn2c(=O)c3ccc(C(=O)NC4CCCC4)cc3n3c(=O)n(C)nc23)cc1`, for which the activity change, negative = inhibition amounted to 2.08% in experiment [1]; 4.92% in experiment [2]; 1.31% in experiment [3]; 1.19% in experiment [4]; 3.23% in experiment [5].

As to `CCOC(=O)N1CCC(CN(Cc2ccc(Cl)cc2)Cc2ccc([N+](=O)[O-])s2)C1` (stereo not drawn), the activity change, negative = inhibition in experiment [1] is -5.15%; in experiment [2], -18%; in experiment [3] it was -2.54%; in experiment [4], -35.6%; in experiment [5], -6.78%.

For `CC1CCC(n2c3cnccc3c3cnc(Nc4ccc5c(n4)CCN(C(=O)CO)C5)nc32)CC1` (stereo not drawn), the activity change, negative = inhibition in experiment [1] is -4.99%; in experiment [2], 5.16%; in experiment [3] it was 8.18%; in experiment [4] it was -15.2%; in experiment [5] it was 5.36%.

Turning to `Cc1noc(C)c1[S+](=O)([O-])N1CCn2ncc(C(=O)NCc3ccc(Cl)nc3)c2C1`, the activity change, negative = inhibition is -11.3% in experiment [1]; -6.21% in experiment [2]; -6.93% in experiment [3]; -10.2% in experiment [4]; -2.17% in experiment [5].

Regarding `Cn1cc(CN2C[C@@H]3C[C@H](C2)c2ccc(NC(=O)COc4ccccc4)c(=O)n2C3)c2ccccc21`, the activity change, negative = inhibition was -4.63% in experiment [1]; -1.28% in experiment [2]; -10.6% in experiment [3]; -10.6% in experiment [4]; -9.56% in experiment [5].

Take `COc1cc(/C=C/C(=O)O[C@@H]2O[C@H](CO)[C@@H](O)[C@H](O)[C@H]2O)ccc1O`: the activity change, negative = inhibition in experiment [1] was -1.99%; in experiment [2] it was -8.83%; in experiment [3] it was 2.37%; in experiment [4] it was -17.3%; in experiment [5], -0.54%.

As for `O=C(COc1cccc(-c2nnc3n2CCCC3)c1)NCc1ccccc1`, the activity change, negative = inhibition in experiment [1] is -1.94%; in experiment [2], 2%; in experiment [3], -17.6%; in experiment [4], -4.8%; in experiment [5] it was -1.8%.

For `COCCCNC(=O)N1Cc2c(sc3c2CCCC3)-n2cccc2C1c1cccc(C)c1` (stereo not drawn), the activity change, negative = inhibition in experiment [1] was -7.34%; in experiment [2], -0.707%; in experiment [3], -7.08%; in experiment [4], -10.7%; in experiment [5], -5.17%.

As for `CC(C)(C)NC(=O)[C@H]1CC[C@H]2[C@@H]3CC[C@H]4NC(=O)CC[C@]4(C)[C@H]3CC[C@]12C`, the activity change, negative = inhibition in experiment [1] is -2.66%; in experiment [2], 9.1%; in experiment [3], -2.2%; in experiment [4] it was -16.4%; in experiment [5], -9.51%.

As for `CCOC(=O)c1cnc2ccc(Br)cc2c1Nc1cccc(C(C)=O)c1`, the activity change, negative = inhibition in experiment [1] was -16.6%; in experiment [2] it was 0.35%; in experiment [3], 2.95%; in experiment [4], 0.316%; in experiment [5], -2.03%.

For `CC(O)CN1CC2(CCC1=O)CCN(Cc1cncn1C)CC2` (stereo not drawn), the activity change, negative = inhibition was -4.29% in experiment [1]; -8.87% in experiment [2]; -4% in experiment [3]; -14% in experiment [4]; 2.57% in experiment [5].

For the compound `C=CCc1cc(-c2c(-c3ccccc3)ncn2CCOCCO)cc(OC)c1O`, the activity change, negative = inhibition in experiment [1] is -5.25%; in experiment [2], -5.76%; in experiment [3], -4.77%; in experiment [4], -24.4%; in experiment [5], -8.69%.

With `C[C@H]1O[C@@H](O[C@H]2CC[C@@]3(C)C(CC[C@]4(C)C3CC=C3C5CC(C)(C)CC[C@]5(C(=O)O)CC[C@]34C(=O)O)C2(C)C)[C@H](O)[C@@H](O)[C@@H]1O` (stereo partly drawn), the activity change, negative = inhibition in experiment [1] was -1.2%; in experiment [2], -1.4%; in experiment [3] it was 0.513%; in experiment [4], -13.5%; in experiment [5] it was 2.85%.

Take `Cc1ccccc1Cn1nc2n(CCc3ccccc3)c(=O)c3ccccc3n2c1=O`: the activity change, negative = inhibition in experiment [1] is -0.397%; in experiment [2], 1.52%; in experiment [3] it was 14.2%; in experiment [4], -2.65%; in experiment [5], -3.73%.
